Measured values: the RNAGym collection of RNA variant scans (doi:10.1093/nar/gkz1192)
The source gives no read counts; variants with many changes may rest on few reads.

B1: CPEB3 Ribozyme (parent)
chain: UAACAGGGGGCCACAGCAGAAGCGUUCACGUCGCAGCCCCUGUCAGAUUCUGGUGAAUCUGCGAAUUCUGCUGUAUAUCUC

Variants of: B1
Assay: self-cleavage, relative activity (ratio to wild type); higher = more cleavage; in vitro, sequencing
In short: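 After error-prone PCR and barcoding, CPEB3 ribozyme mutant libraries were transcribed with T7 RNA polymerase at 37°C for 5 hours, then given 15 min with DNase I before an EDTA stop, and they cleaved during both steps. Reverse transcription with template switching preceded Illumina sequencing. Relative activity divides a variant's cleaved/total read fraction by the unmutated ribozyme's. At least 5 reads were required per variant, and three batches were averaged.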
G10C U31C C62G U69C U78C gave a self-cleavage of 0.07.
With G10C U31C U72C the self-cleavage was 0.22.
For G10C U31G U41C A45G U58G U66C, the self-cleavage was 0.14.
In the case of G10C U31G U49C G70A, the self-cleavage is reported as 0.04.
With G10C U41C G52A the self-cleavage was 0.09.
Variant G10C U43A A45U G53A has a self-cleavage of 0.19.
With G10C U43A U54C G63A U80A the self-cleavage was 0.07.
G10C U48A U66A U76A showed a self-cleavage of 0.11.
With G10C U48C A65U A75G the self-cleavage was 0.01.
Variant G10C U48C U54A has a self-cleavage of 0.07.
Variant G10C U51C U72C has a self-cleavage of 0.25.
With G10C U58A U72C the self-cleavage was 0.17.
Work on G10C U58C C79U yielded a self-cleavage of 0.09.
Variant G10C U60A U72A has a self-cleavage of 0.13.
G10C U60C U66C U74A U76A gave a self-cleavage of 0.05.
In the case of G10U A13G U25C G33U A47G U49A U78C, the self-cleavage is reported as 0.05.
For G10U A13G U51C U72C, the self-cleavage was 0.14.
Work on G10U A13G U54C yielded a self-cleavage of 0.06.
For G10U A13U A21G G30A U48G C62U, the self-cleavage was 0.01.
G10U A13U A35G U51A G53U U58C U80C gave a self-cleavage of 0.28.
Variant G10U A15G G24A A77U has a self-cleavage of 0.04.
For G10U A15U A45C A64G, the self-cleavage was 0.13.
With G10U A15U U54A the self-cleavage was 0.21.
In the case of G10U A18G G24U U41C A75G U80A, the self-cleavage is reported as 0.04.
Work on G10U A18G U49C A56U A64G A65G yielded a self-cleavage of 0.13.
G10U A18G U54A A77C gave a self-cleavage of 0.06.
With G10U A18G U54C the self-cleavage was 0.16.
Work on G10U A18G U54C U74C A75G yielded a self-cleavage of 0.18.
G10U A18U A64U gave a self-cleavage of 0.06.
Work on G10U A20G A21U A28G A35U A77G yielded a self-cleavage of 0.07.
G10U A20G A45U showed a self-cleavage of 0.09.
With G10U A21G A28U A56G U66A U80C the self-cleavage was 0.02.
Variant G10U A21G G33U U78C has a self-cleavage of 0.04.
In the case of G10U A21G U72C, the self-cleavage is reported as 0.04.
G10U A28G A57G U66C showed a self-cleavage of 0.03.
For G10U A28G U31A, the self-cleavage was 0.11.
In the case of G10U A28U U41C A45U U60A C71U U78A, the self-cleavage is reported as 0.03.
Variant G10U A28U U67C has a self-cleavage of 0.1.
G10U A35G U51A U69A U72A gave a self-cleavage of 0.09.
For G10U A35U C38U U66C, the self-cleavage was 0.03.
Work on G10U A35U U41C U49C G63U yielded a self-cleavage of 0.04.
With G10U A45G G52U the self-cleavage was 0.04.
G10U A47G A56C showed a self-cleavage of 0.12.
In the case of G10U A47G A57G U80C, the self-cleavage is reported as 0.14.
Work on G10U A47G U66C yielded a self-cleavage of 0.05.
With G10U A57G U72C the self-cleavage was 0.2.
With G10U A64G U76C the self-cleavage was 0.06.
With G10U A64U U80C the self-cleavage was 0.49.
Variant G10U C11A A35U A64G has a self-cleavage of 0.07.
G10U C11G A15G A18G U31A U76C gave a self-cleavage of 0.05.
With G10U C12A U48A U60A U80G the self-cleavage was 0.03.
G10U C14U U31A U51A showed a self-cleavage of 0.06.
With G10U C17A U72C the self-cleavage was 0.21.
For G10U C23G U49C, the self-cleavage was 0.06.
Variant G10U C23U A77G C81A has a self-cleavage of 0.12.
G10U C34A A35G G55U U67A gave a self-cleavage of 0.04.
For G10U C37A C40U, the self-cleavage was 0.26.
Variant G10U C50U A77C has a self-cleavage of 0.18.
G10U G19U U31A C59A U66C showed a self-cleavage of 0.03.
G10U G22A A47U U78C gave a self-cleavage of 0.12.
Work on G10U G22U C40U A45U U48C U49A U51A yielded a self-cleavage of 0.04.
G10U G30C A45C G70A U80C gave a self-cleavage of 0.04.
Work on G10U G33A U41C U80A yielded a self-cleavage of 0.06.
Variant G10U G73A U76C has a self-cleavage of 0.36.
G10U U25A U49C A56G U58C gave a self-cleavage of 0.05.
For G10U U25C A28U U69A, the self-cleavage was 0.12.
G10U U25C A45C gave a self-cleavage of 0.07.
In the case of G10U U25C G36C A47G U51A U80C, the self-cleavage is reported as 0.12.
With G10U U25C U66C U76A U80C the self-cleavage was 0.05.
G10U U26A C29U U31A C39G gave a self-cleavage of 0.16.
Work on G10U U26C G30A U49C U51C U72G yielded a self-cleavage of 0.07.
With G10U U26C U41C A64G U76A U80C the self-cleavage was 0.22.
With G10U U31A C59A U66C U78A the self-cleavage was 0.06.
G10U U31A U41A A57U gave a self-cleavage of 0.11.
In the case of G10U U31A U49C U67A C79A, the self-cleavage is reported as 0.1.
Variant G10U U31C U49C A56G U80A has a self-cleavage of 0.07.
For G10U U31C U51C, the self-cleavage was 0.07.
Work on G10U U41C A57C yielded a self-cleavage of 0.27.
G10U U41C G63U G70A gave a self-cleavage of 0.17.
G10U U41C U49A gave a self-cleavage of 0.13.
Variant G10U U41C U49A A64U U74C U78A has a self-cleavage of 0.08.
Variant G10U U43C U69C U72A A77G has a self-cleavage of 0.04.
G10U U49A U51A A64G U66C showed a self-cleavage of 0.12.
Work on G10U U49C U69C U76C yielded a self-cleavage of 0.13.
G10U U49C U72A showed a self-cleavage of 0.07.
With G10U U60A U66A the self-cleavage was 0.14.
In the case of C11A A13C G22A U41A U43C A56U A77G, the self-cleavage is reported as 0.05.
C11A A13C U25C A45U U60A U67A U69C gave a self-cleavage of 0.08.
Work on C11A A13C U31C C50A U69C yielded a self-cleavage of 0.09.
Work on C11A A13G A21G A64G yielded a self-cleavage of 0.42.
C11A A13G A28U G63A A64U C71U showed a self-cleavage of 0.04.
Work on C11A A13G A64U yielded a self-cleavage of 0.03.
In the case of C11A A13G G70A, the self-cleavage is reported as 0.1.
C11A A13G U25C U26C C29U G52A U69C gave a self-cleavage of 0.06.
C11A A13G U26G U67C U69A showed a self-cleavage of 0.08.
For C11A A13G U43C U48A U51C U67C, the self-cleavage was 0.08.
Work on C11A A13G U43G yielded a self-cleavage of 0.05.
For C11A A13G U49A U54C A57G, the self-cleavage was 0.19.
For C11A A13U U26C U66A C81U, the self-cleavage was 0.08.
With C11A A13U U31C the self-cleavage was 0.2.
C11A A15C C27U showed a self-cleavage of 0.28.
Work on C11A A15C C34G U48C U72C yielded a self-cleavage of 0.07.
C11A A15G A20U U25A U41C A45G U69A gave a self-cleavage of 0.12.
C11A A15G A20U U41A A45G gave a self-cleavage of 0.02.
Variant C11A A15G G22A A47U U54G U66A U74C has a self-cleavage of 0.18.
C11A A15G U60A G73A showed a self-cleavage of 0.14.
C11A A15G U80A showed a self-cleavage of 0.42.
C11A A15U A18U C62G U66C U67C gave a self-cleavage of 0.18.
Variant C11A A15U A28U U43C has a self-cleavage of 0.53.
In the case of C11A A15U A45G, the self-cleavage is reported as 0.21.
With C11A A15U A45G A57G C79U the self-cleavage was 0.1.
C11A A15U A56U A65G C68A showed a self-cleavage of 0.02.
In the case of C11A A15U U26G C29U U76C, the self-cleavage is reported as 0.16.
C11A A15U U66C showed a self-cleavage of 0.19.
Variant C11A A18C U31C U78C has a self-cleavage of 0.2.
With C11A A18G A20U A57G C68A the self-cleavage was 0.05.
For C11A A18G C23G U26A U67C, the self-cleavage was 0.05.
C11A A18G U41A A57G U69C gave a self-cleavage of 0.06.
For C11A A18G U48C, the self-cleavage was 0.35.
C11A A18U A64U gave a self-cleavage of 0.04.
Work on C11A A18U C23G C44A yielded a self-cleavage of 0.06.
For C11A A18U C32U G36A, the self-cleavage was 0.05.
C11A A18U U25C A45G U49A A57G U74C showed a self-cleavage of 0.05.
C11A A18U U26C A45U U51C U54G A57G gave a self-cleavage of 0.1.
With C11A A18U U41C A65G the self-cleavage was 0.1.
With C11A A18U U51A A57G the self-cleavage was 0.04.
Variant C11A A18U U60A A65G U78A U80A has a self-cleavage of 0.19.
C11A A20G C37U U60C A65U showed a self-cleavage of 0.05.
C11A A20G C59A U72C gave a self-cleavage of 0.08.
In the case of C11A A20G G46U U48A U60C U80A, the self-cleavage is reported as 0.35.
In the case of C11A A20G U26C G33C U72C U76A, the self-cleavage is reported as 0.
With C11A A20G U31A G36A the self-cleavage was 0.05.
Variant C11A A20G U43A A64G U72A has a self-cleavage of 0.07.
Variant C11A A20G U60A has a self-cleavage of 0.32.
With C11A A20U A28G A57G U80A the self-cleavage was 0.03.
Variant C11A A20U U25C A35G U49C C59U has a self-cleavage of 0.06.
Work on C11A A21G A28G U43A yielded a self-cleavage of 0.09.
In the case of C11A A21G A28G U58A, the self-cleavage is reported as 0.3.
With C11A A21G A28U A47G U74G the self-cleavage was 0.06.
Variant C11A A21G A45G U72A has a self-cleavage of 0.03.
Work on C11A A21G A77G yielded a self-cleavage of 0.32.
In the case of C11A A21G C27G U67C, the self-cleavage is reported as 0.14.
C11A A21G C34U U43C U49C gave a self-cleavage of 0.04.
In the case of C11A A21G G24C A35G A45G, the self-cleavage is reported as 0.2.
C11A A21G U25C U54C A77G gave a self-cleavage of 0.04.
With C11A A21G U31C the self-cleavage was 0.06.
Work on C11A A21G U41A U43A U66C A77G yielded a self-cleavage of 0.04.
For C11A A21G U78G, the self-cleavage was 0.1.
C11A A21U A35G A64U U69C U78C showed a self-cleavage of 0.02.
Variant C11A A28G A56U U66A has a self-cleavage of 0.06.
In the case of C11A A28G U31C U51A A56G U69C, the self-cleavage is reported as 0.09.
In the case of C11A A28U U54C U72A U80C, the self-cleavage is reported as 0.22.
With C11A A35G C40U the self-cleavage was 0.17.
C11A A35G G61A A64G gave a self-cleavage of 0.06.
For C11A A35G U43A A56U U69A, the self-cleavage was 0.09.
Work on C11A A45G U69C yielded a self-cleavage of 0.31.
C11A A47G A64G U72C gave a self-cleavage of 0.2.
Variant C11A A56G U58C has a self-cleavage of 0.07.
C11A A56G U66A U72C gave a self-cleavage of 0.07.
In the case of C11A A56U A64G, the self-cleavage is reported as 0.15.
C11A A64G U72A showed a self-cleavage of 0.11.
C11A A65G U66A showed a self-cleavage of 0.2.
In the case of C11A A65G U72A, the self-cleavage is reported as 0.1.
Variant C11A C12U A18U U25C U49C U51C has a self-cleavage of 0.05.
Work on C11A C12U U51C U72C yielded a self-cleavage of 0.16.
C11A C14U C17A U72C A77G showed a self-cleavage of 0.38.
Variant C11A C23G C32A C38G U69G has a self-cleavage of 0.02.
